Screen size: about 340,000 compounds; about 12,000 (3.5%) were called active. Inconclusive results, whose numbers are uncertain, are shown with a selection of clear calls. Calls follow the shape of the dose curve; as a rule, active = well fitted inhibition curve with a large enough effect; inconclusive = small, poorly fitted or top-dose-only effect, or another doubt; inactive = no such curve, though single readings can be large or run the other way. No potency is given beside an inconclusive call; the fits are too rough.
test: qHTS Assay for Inhibitors of Hepatitis C Virus (HCV); details: Huh7.5.1 HCVcc-Cre (HCVcc is cell-culture hepatitis C virus) infection, luciferase reporter, 44 h; series mostly up to 41.8 µM
Procedure, shortened: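 1,000 cells/well; 4 h culture; + compound; + HCVcc-Cre (~0.5 moi); 44 h; luciferase substrate, RT 15 min; read 15 sec.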
Potency is read from the fitted curve at half-maximal effect; tags tell the direction and shape of the fitted curve.

SMILES | Potency
CCOC(=O)Nc1ccc(NS(=O)(=O)c2ccc(C)cc2)cc1 | inconclusive [inhibitor, single point]
Cc1nnsc1C(=O)Nc1ccc(S(=O)(=O)N2CCCCC2C)cc1 (stereo not given) | inconclusive [inhibitor, partial curve]
Cc1csc(=O)n1CC(=O)OCc1cccc2ccccc12 | inactive
O=C(c1ccc(Cl)c(S(=O)(=O)N2CCOCC2)c1)N1CCc2ccccc2C1 | inactive
O=C(NC1CC1)C1=C[C@@H](c2c[nH]c3ccccc23)C[C@@H](OCCCCO)O1 | inconclusive [inhibitor, single point]
Cc1cccc(C(=O)Nc2cccc(C(=O)NC3CCCC3)c2)c1 | inconclusive [inhibitor, partial curve]
O=C(c1cccc(F)c1)N1CCN(C(=O)C(c2ccccc2)c2ccccc2)CC1 | inactive
O=S(=O)(c1ccc(-c2ccccc2)cc1)N1CCCCC1 | inconclusive [inhibitor, single point]
Cc1ccnc(Nc2nc(-c3ccc(Cl)cc3)cs2)c1 | inconclusive [inhibitor, partial curve]
CCOC(=O)c1sc(NC(=O)Cc2c(F)cccc2Cl)nc1C | inconclusive [inhibitor, partial curve]
O=C(COc1ccc(Br)cc1)NCCO | inactive
CSCCNCc1c(C(=O)N2CCOCC2)nc2c(C)cccn12 | inactive
COc1cc(CNC(C)(C)CO)cc(Br)c1OCc1ccc(Cl)cc1 | active: 5.01 µM
N/C(CC1CC1(Cl)Cl)=N\OC(=O)c1ccccc1 (stereo not given) | inactive
CCOC(=O)C1=C(C)N2C(=C(C#N)[C@@H]1c1ccc(C(=O)OC)cc1)SC[C@@]2(O)C(C)(C)C | inconclusive [inhibitor, single point]
O=C(CSc1ncnc2c1cnn2CCc1ccccc1)Nc1cccc(C(F)(F)F)c1 | inconclusive [inhibitor, single point]
O=[N+]([O-])c1cc(N=Nc2ccc3ccccc3c2)ccc1O | inactive
CCCCC(=O)NCCNc1nc2c(c(=O)n(C)c(=O)n2C)n1Cc1ccccc1 | inactive
COc1ccccc1/C=C1/SC(=S)N(CCC(=O)Nc2cccnc2)C1=O | inconclusive [inhibitor, partial curve]
Cc1ccc(CN2CCN(CC(=O)N=Nc3c(O)[nH]c4ccccc34)CC2)cc1 | inconclusive [inhibitor, single point]
CCN(CC)c1ccc(NC(=O)c2cc3ccccc3o2)c(C)c1 | inconclusive [inhibitor, single point]
CCc1ccc(NC(=O)COC(=O)C2(c3ccc(Cl)cc3)CCCC2)cc1 | inconclusive [inhibitor, partial curve]
COc1ccc(/C(N)=N/OC(=O)Cc2ccc(C)cc2)cc1 | inactive
CC(=O)N(C(C)=O)c1c(N2CCOCC2)c2ccccc2oc1=O | inconclusive [inhibitor, single point]
COc1ccc(NC(=O)c2oc3ccc(S(=O)(=O)N4CCOCC4)cc3c2C)cc1 | inconclusive [inhibitor, partial curve]

SMILES | Potency
CN(CCOc1ccc(Cl)cc1)CC(O)c1ccccc1 (stereo not given) | inconclusive [inhibitor, single point]
COC(=O)C1=C(C(=O)OC)[N+]2=C3N(C(=O)NC2(C)C)[C@H](CO)C[C@@]32c3ccccc3N(Cc3ccccc3)[C@@H]12 | inconclusive [inhibitor, single point]
COc1cc(CNC(=O)c2cccc(COc3ccc(Cl)cc3)c2)cc(OC)c1 | active: 7.94 µM
O=C1S/C(=C/c2ccc(N3CCOCC3)o2)C(=O)N1Cc1ccc(F)cc1 | inconclusive [inhibitor, single point]
CCCCCOc1ccc(NS(C)(=O)=O)cc1 | inactive
C#Cc1ccc([C@@H]2C=C(C(=O)NCc3ccccc3)O[C@H](OCC)[C@H]2CCCO)cc1 | inconclusive [inhibitor, single point]
CCOc1cc(/C=C/C(=O)Nc2ccc(C(=O)NCCN(CC)CC)cc2)ccc1OCC(C)C | active: 3.16 µM
CC1=Nc2cc(C(=O)NCCCN3CCOCC3)ccc2Sc2c(C)ccc(C)c21 | inconclusive [inhibitor, partial curve]
CC(C)(C)c1cc(C(=O)C[n+]2ccc(C(=O)NCCCO)cc2)cc(C(C)(C)C)c1O | inconclusive [inhibitor, partial curve]
CSc1ncccc1C(=O)OCC(=O)c1ccc(S(=O)(=O)N2CCCCC2)cc1 | inconclusive [inhibitor, single point]
CNC(=O)c1ccc(=O)n(Cc2cccc(C(F)(F)F)c2)c1 | inactive
C/C(=N\NC(=O)c1ccccc1)c1c(O)n(C2CCCCC2)c(=O)[nH]c1=O | inactive
CCOC(=O)C1(CCOc2ccccc2)CCN(Cc2ccc3nonc3c2)CC1 | active: 10 µM
O=C(COc1ccc(Cl)cc1Cl)N(c1ccccn1)C1CCCCC1 | inactive
Cc1nn(C)c(C)c1CN(Cc1nc(-c2cc(F)ccc2F)oc1C)C1CC1 | inconclusive [inhibitor, partial curve]
Cc1ccc2nc(CCc3nc4ccc(C)cc4o3)oc2c1 | inactive
Cn1c(=O)c2c(nc(Sc3nc4ccccc4n3CC(=O)N3CCCCC3)n2C)n(C)c1=O | inactive
Nc1ccccc1Nc1cc(-c2ccccc2)[nH]n1 | inconclusive [inhibitor, single point]
COc1ccccc1CNC(=O)CSCc1cnn(-c2ccccc2)c1-n1cccc1 | inconclusive [inhibitor, single point]
CC1C(=O)CC(c2ccccc2)NC1c1ccccc1 (stereo not given) | inactive
COc1ccc(CN(C)C(=O)c2cc(S(=O)(=O)NCc3ccccc3)ccc2C)c(OC)c1 | inconclusive [inhibitor, partial curve, poor fit]
Cn1c(=O)[nH]c(=O)c2c1nc(N1CCOCC1)n2CC(=O)c1ccccc1 | inactive
O=C(CSc1nnc(CNc2ccccc2)o1)c1ccc2c(c1)OCCO2 | inconclusive [inhibitor, single point]
Oc1ccc(/C=N/n2cc(-c3ccccc3)[nH]c2=S)cc1 | inactive
COc1ccc(C2Nc3ccccc3C(=O)N2O)cc1OC (stereo not given) | inconclusive [inhibitor, partial curve, poor fit]

SMILES | Potency
CN1CCN(CCCNC(=O)c2ccc(/C=C3\Sc4ccccc4N(Cc4ccc(F)cc4)C3=O)cc2)CC1 | inconclusive [inhibitor, single point]
COc1cc(OC)cc(C(=O)Nc2ccc(-n3cnnn3)c(C)c2)c1 | active: 7.08 µM
S=C(NN=C1C2CC3CC(C2)CC1C3)Nc1ccccc1 | inactive
O[C@@H](c1cc(C(F)(F)F)nc2c(C(F)(F)F)cccc12)[C@H]1CCCCN1 | active: 8.91 µM
COc1ccc(Cn2nnnc2C(c2cc3ccc(OC)cc3[nH]c2=O)N2CCC(C)CC2)cc1 (stereo not given) | inactive
COc1ccc(C(=O)Nc2ccc3nc(N4CCOCC4)sc3c2)cc1OC | inconclusive [inhibitor, partial curve]
Cc1[nH]c2ccccc2c1C(=O)NS(=O)(=O)Nc1ccc(F)cc1 | inactive
COCCCNC(=S)N1CCN(c2ccc([N+](=O)[O-])cc2)CC1 | inconclusive [inhibitor, single point]
O=C(COC(=O)CN1C(=O)NC2(CCCC2)C1=O)Nc1c(Cl)cccc1C(F)(F)F | inactive
Cc1cccc(C(=O)N2CCc3cc(-c4nc(NC(=O)Cn5nnc6ccccc6c5=O)sc4C)ccc32)c1 | inactive
CCn1c2ccccc2c2cc(NC(=O)c3ccc(Br)o3)ccc21 | inconclusive [inhibitor, single point]
CSCC[C@H](NC(=O)Nc1ccc(S(N)(=O)=O)cc1)C(=O)O | inactive
O=C(COC(=O)c1ccc(Cl)nc1)Nc1ccc(N2CCCCC2)cc1 | inactive
CCOC(=O)Cn1c2c(c(=N)c3ccccc31)CCC2 | inactive
Cc1ccc(NNC(=O)C(O)(c2cccc(C(F)(F)F)c2)c2cccc(C(F)(F)F)c2)cc1 | inconclusive [inhibitor, partial curve, poor fit]
CCOC(=O)C(C#N)(Cc1ccc2ccccc2n1)Cc1ccc2ccccc2n1 | inconclusive [inhibitor, single point]
CCn1ncc(Br)c1C(=O)Nc1sc2c(c1C(=O)OC)CCC2 | inconclusive [inhibitor, single point]
Nc1cc(=O)[nH]c(SCC(=O)NCCC2=CCCCC2)n1 | inactive
CC(=O)Nc1nc(C)c(-c2csc(Nc3cccc(C(C)=O)c3)n2)s1 | active: 10 µM
CC1CCN(CCCNC(=O)C2CC(=O)N(C3CCCCCC3)C2)CC1 (stereo not given) | inactive
Fc1ccc(CSc2nc3ccccc3[nH]2)c2ccccc12 | inactive
COc1ccc(/C=N/NC(=O)c2nc(Cl)c(Cl)c(N)c2Cl)cc1COc1ccc(F)cc1F | active: 11.2 µM
Cc1nonc1NC(=O)CSc1nc(C23CC4CC(CC(C4)C2)C3)nc2ccccc12 | inconclusive [inhibitor, single point]
Cc1ccc(S(=O)(=O)NNC(=O)C2Cc3c(ccc4ccccc34)O2)cc1 (stereo not given) | inactive
Clc1ccc(CO/N=C/c2c(-c3ccccc3)nc3n2CCS3)c(Cl)c1 | inconclusive [inhibitor, partial curve]
